{"source": "the supplement of paper PMC8728848", "binders": {"B1": {"name": "Epa6 (Candida glabrata), Q6DTM7_CANGB (protein)", "chain": "MGSSHHHHHHSSGLVPRGSHMKDDYSSSLSNNNLGWTDPTEFPLGCSPNVTTPKNGLSMELYSYDYLKSGSNPCWDAAYLDPNYPRTGYKSHRLLAKVENVAGNINFYYHAPMGCTSLFDTLPQAYNYRTPLTMTNFTMLLYGYFKPKVTGYHTFTISADDLLFVNFGAGNAFDCCKRESSADDFGNYQAYAVWGSQTAKDDLTVHLDAGLYYPIRIFFNNRDNDGALSLTLKTESDPNPVIDFSDYFYSFDDTKDGCPGLVSYDTS"}}, "experiment_in_all_cases": "glycan array binding signal (z-score within array); higher = stronger binding", "details_in_all_cases": "glycan notation: IUPAC condensed, linker removed", "key": {"[1]": {"biological_target": "Neu5Ac(a2-3)Gal(b1-4)GlcNAc(b1-2)[Neu5Ac(a2-3)Gal(b1-4)GlcNAc(b1-4)]Man(a1-3)[GlcNAc(b1-4)][Neu5Ac(a2-3)Gal(b1-4)GlcNAc(b1-2)[Neu5Ac(a2-3)Gal(b1-4)GlcNAc(b1-6)]Man(a1-6)]Man(b1-4)GlcNAc(b1-4)GlcNAc", "in_short": "(§1)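 The Consortium for Functional Glycomics database supplied 3228 glycan arrays, of which those lacking an available protein sequence were dropped. The binding signal, a within-array Z-score, was averaged across arrays of the same protein sequence and across linkers. Negative scores can be read as non-binding.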"}, "[2]": {"biological_target": "Neu5Ac(a2-3)Gal(b1-4)GlcNAc(b1-2)[Neu5Ac(a2-3)Gal(b1-4)GlcNAc(b1-4)]Man(a1-3)[GlcNAc(b1-4)][Neu5Ac(a2-3)Gal(b1-4)GlcNAc(b1-4)Man(a1-6)]Man(b1-4)GlcNAc(b1-4)GlcNAc", "in_short": "as §1"}, "[3]": {"biological_target": "Neu5Ac(a2-3)Gal(b1-4)GlcNAc(b1-2)[Neu5Ac(a2-3)Gal(b1-4)GlcNAc(b1-6)]Man(a1-6)[Neu5Ac(a2-3)Gal(b1-4)GlcNAc(b1-2)Man(a1-3)]Man(b1-4)GlcNAc(b1-4)GlcNAc", "in_short": "as §1"}, "[4]": {"biological_target": "Neu5Ac(a2-3)Gal(b1-4)GlcNAc(b1-2)[Neu5Ac(a2-3)Gal(b1-4)GlcNAc(b1-6)]Man(a1-6)[Neu5Ac(a2-3)Gal(b1-4)GlcNAc(b1-2)Man(a1-3)][GlcNAc(b1-4)]Man(b1-4)GlcNAc(b1-4)GlcNAc", "in_short": "as §1"}, "[5]": {"biological_target": "Neu5Ac(a2-3)Gal(b1-4)GlcNAc(b1-3)Gal", "in_short": "as §1"}, "[6]": {"biological_target": "Neu5Ac(a2-3)Gal(b1-4)GlcNAc(b1-3)Gal(b1-3)GlcNAc", "in_short": "as §1"}, "[7]": {"biological_target": "Neu5Ac(a2-3)Gal(b1-4)GlcNAc(b1-3)Gal(b1-4)GlcNAc", "in_short": "as §1"}, "[8]": {"biological_target": "Neu5Ac(a2-3)Gal(b1-4)GlcNAc(b1-3)Gal(b1-4)GlcNAc(b1-2)Man(a1-3)[Neu5Ac(a2-3)Gal(b1-4)GlcNAc(b1-3)Gal(b1-4)GlcNAc(b1-2)Man(a1-6)]Man(b1-4)GlcNAc(b1-4)GlcNAc", "in_short": "as §1"}, "[9]": {"biological_target": "Neu5Ac(a2-3)Gal(b1-4)GlcNAc(b1-3)Gal(b1-4)GlcNAc(b1-3)Gal(b1-4)GlcNAc", "in_short": "as §1"}, "[10]": {"biological_target": "Neu5Ac(a2-3)Gal(b1-4)GlcNAc(b1-3)Gal(b1-4)GlcNAc(b1-3)Gal(b1-4)GlcNAc(b1-2)Man(a1-3)[Neu5Ac(a2-3)Gal(b1-4)GlcNAc(b1-3)Gal(b1-4)GlcNAc(b1-3)Gal(b1-4)GlcNAc(b1-2)Man(a1-6)]GalNAc", "in_short": "as §1"}, "[11]": {"biological_target": "Neu5Ac(a2-3)Gal(b1-4)GlcNAc(b1-3)Gal(b1-4)GlcNAc(b1-3)GalNAc", "in_short": "as §1"}, "[12]": {"biological_target": "Neu5Ac(a2-3)Gal(b1-4)GlcNAc(b1-3)Gal(b1-4)GlcNAc(b1-3)[Neu5Ac(a2-3)Gal(b1-4)GlcNAc(b1-3)Gal(b1-4)GlcNAc(b1-6)]GalNAc", "in_short": "as §1"}, "[13]": {"biological_target": "Neu5Ac(a2-3)Gal(b1-4)GlcNAc(b1-3)Gal(b1-4)GlcNAc(b1-6)[Gal(b1-3)]GalNAc", "in_short": "as §1"}, "[14]": {"biological_target": "Neu5Ac(a2-3)Gal(b1-4)GlcNAc(b1-3)Gal(b1-4)[Fuc(a1-3)]GlcNAc", "in_short": "as §1"}, "[15]": {"biological_target": "Neu5Ac(a2-3)Gal(b1-4)GlcNAc(b1-3)GalNAc", "in_short": "as §1"}, "[16]": {"biological_target": "Neu5Ac(a2-3)Gal(b1-4)GlcNAc(b1-3)[Neu5Ac(a2-3)Gal(b1-4)GlcNAc(b1-6)]GalNAc", "in_short": "as §1"}, "[17]": {"biological_target": "Neu5Ac(a2-3)Gal(b1-4)GlcNAc(b1-6)GalNAc", "in_short": "as §1"}, "[18]": {"biological_target": "Neu5Ac(a2-3)Gal(b1-4)GlcNAc(b1-6)[Gal(b1-3)]GalNAc", "in_short": "as §1"}, "[19]": {"biological_target": "Neu5Ac(a2-3)Gal(b1-4)GlcNAc(b1-6)[Neu5Ac(a2-3)Gal(b1-3)]GalNAc", "in_short": "as §1"}, "[20]": {"biological_target": "Neu5Ac(a2-3)Gal(b1-4)GlcNAc6S", "in_short": "as §1"}, "[21]": {"biological_target": "Neu5Ac(a2-3)Gal(b1-4)[Fuc(a1-3)]GlcNAc", "in_short": "as §1"}, "[22]": {"biological_target": "Neu5Ac(a2-3)Gal(b1-4)[Fuc(a1-3)]GlcNAc(b1-2)Man", "in_short": "as §1"}, "[23]": {"biological_target": "Neu5Ac(a2-3)Gal(b1-4)[Fuc(a1-3)]GlcNAc(b1-3)Gal", "in_short": "as §1"}, "[24]": {"biological_target": "Neu5Ac(a2-3)Gal(b1-4)[Fuc(a1-3)]GlcNAc(b1-3)Gal(b1-4)GlcNAc", "in_short": "as §1"}, "[25]": {"biological_target": "Neu5Ac(a2-3)Gal(b1-4)[Fuc(a1-3)]GlcNAc(b1-3)Gal(b1-4)[Fuc(a1-3)]GlcNAc(b1-3)Gal(b1-4)[Fuc(a1-3)]GlcNAc", "in_short": "as §1"}, "[26]": {"biological_target": "Neu5Ac(a2-3)Gal(b1-4)[Fuc(a1-3)]GlcNAc(b1-3)GalNAc", "in_short": "as §1"}, "[27]": {"biological_target": "Neu5Ac(a2-3)Gal(b1-4)[Fuc(a1-3)]GlcNAc(b1-6)[Gal(b1-3)]GalNAc", "in_short": "as §1"}, "[28]": {"biological_target": "Neu5Ac(a2-3)Gal(b1-4)[Fuc(a1-3)]GlcNAc(b1-6)[Neu5Ac(a2-3)Gal(b1-3)]GalNAc", "in_short": "as §1"}, "[29]": {"biological_target": "Neu5Ac(a2-3)Gal(b1-4)[Fuc(a1-3)]GlcNAc6S", "in_short": "as §1"}, "[30]": {"biological_target": "Neu5Ac(a2-3)Gal6S(b1-4)GlcNAc", "in_short": "as §1"}, "[31]": {"biological_target": "Neu5Ac(a2-3)Gal6S(b1-4)[Fuc(a1-3)]GlcNAc", "in_short": "as §1"}, "Neu5Ac(a2-3)GalNAc": {"biological_target": "Neu5Ac(a2-3)GalNAc", "in_short": "as §1"}, "[32]": {"biological_target": "Neu5Ac(a2-3)GalNAc(b1-4)GlcNAc", "in_short": "as §1"}, "[33]": {"biological_target": "Neu5Ac(a2-3)[GalNAc(b1-4)]Gal(b1-4)Glc", "in_short": "as §1"}, "[34]": {"biological_target": "Neu5Ac(a2-3)[GalNAc(b1-4)]Gal(b1-4)GlcNAc", "in_short": "as §1"}, "[35]": {"biological_target": "Neu5Ac(a2-3)[GalNAc(b1-4)]Gal(b1-4)GlcNAc(b1-3)GalNAc", "in_short": "as §1"}, "[36]": {"biological_target": "Neu5Ac(a2-3)[Neu5Ac(a2-6)]GalNAc", "in_short": "as §1"}}, "note": "Some of the results follow.", "data": [{"binder": "B1", "values": [{"measurement": "glycan array binding signal (z-score)", "setting": "[1]", "result": -0.344}, {"measurement": "glycan array binding signal (z-score)", "setting": "[2]", "result": -0.343}, {"measurement": "glycan array binding signal (z-score)", "setting": "[3]", "result": -0.297}, {"measurement": "glycan array binding signal (z-score)", "setting": "[4]", "result": -0.332}, {"measurement": "glycan array binding signal (z-score)", "setting": "[5]", "result": -0.336}, {"measurement": "glycan array binding signal (z-score)", "setting": "[6]", "result": -0.293}, {"measurement": "glycan array binding signal (z-score)", "setting": "[7]", "result": -0.308}, {"measurement": "glycan array binding signal (z-score)", "setting": "[8]", "result": -0.189}, {"measurement": "glycan array binding signal (z-score)", "setting": "[9]", "result": -0.315}, {"measurement": "glycan array binding signal (z-score)", "setting": "[10]", "result": -0.23}, {"measurement": "glycan array binding signal (z-score)", "setting": "[11]", "result": -0.309}, {"measurement": "glycan array binding signal (z-score)", "setting": "[12]", "result": -0.263}, {"measurement": "glycan array binding signal (z-score)", "setting": "[13]", "result": 0.082}, {"measurement": "glycan array binding signal (z-score)", "setting": "[14]", "result": -0.304}, {"measurement": "glycan array binding signal (z-score)", "setting": "[15]", "result": -0.245}, {"measurement": "glycan array binding signal (z-score)", "setting": "[16]", "result": -0.314}, {"measurement": "glycan array binding signal (z-score)", "setting": "[17]", "result": -0.299}, {"measurement": "glycan array binding signal (z-score)", "setting": "[18]", "result": 0.321}, {"measurement": "glycan array binding signal (z-score)", "setting": "[19]", "result": -0.312}, {"measurement": "glycan array binding signal (z-score)", "setting": "[20]", "result": -0.347}, {"measurement": "glycan array binding signal (z-score)", "setting": "[21]", "result": -0.32}, {"measurement": "glycan array binding signal (z-score)", "setting": "[22]", "result": -0.243}, {"measurement": "glycan array binding signal (z-score)", "setting": "[23]", "result": -0.328}, {"measurement": "glycan array binding signal (z-score)", "setting": "[24]", "result": -0.172}, {"measurement": "glycan array binding signal (z-score)", "setting": "[25]", "result": -0.33}, {"measurement": "glycan array binding signal (z-score)", "setting": "[26]", "result": 0.035}, {"measurement": "glycan array binding signal (z-score)", "setting": "[27]", "result": 0.011}, {"measurement": "glycan array binding signal (z-score)", "setting": "[28]", "result": -0.17}, {"measurement": "glycan array binding signal (z-score)", "setting": "[29]", "result": -0.347}, {"measurement": "glycan array binding signal (z-score)", "setting": "[30]", "result": -0.333}, {"measurement": "glycan array binding signal (z-score)", "setting": "[31]", "result": -0.289}, {"measurement": "glycan array binding signal (z-score)", "setting": "Neu5Ac(a2-3)GalNAc", "result": -0.337}, {"measurement": "glycan array binding signal (z-score)", "setting": "[32]", "result": -0.273}, {"measurement": "glycan array binding signal (z-score)", "setting": "[33]", "result": -0.292}, {"measurement": "glycan array binding signal (z-score)", "setting": "[34]", "result": -0.3}, {"measurement": "glycan array binding signal (z-score)", "setting": "[35]", "result": -0.263}, {"measurement": "glycan array binding signal (z-score)", "setting": "[36]", "result": -0.339}]}]}
